Sequences with one replicate were seen in a single cluster, so their values are uncertain.
tested on: ATP; experiment: switch fluorescence ratio, 500 uM ATP over buffer (Cy3 cluster intensity, sum of 5 cycles each) (fold (ratio)); higher = stronger signal-on switching upon ATP binding; sequences stand for … in TCGTCGGCAGCGTCAGATGTGTATAAGAGACAGTTTTTTTTTTTTTTTTTTTTTTTTT…TC; conditions: aptamer strand: ATP DNA aptamer (quencher-CACCTGGGGGAGTATTGCGGAGGAAGG + anchor), 100 nM annealed; ATP concentration: 500 uM; one replicate
Summary of the method: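 Values give the fluorescence ratio for each switch-domain sequence, averaged from per-cluster ratios of summed target-cycle to summed buffer-cycle Cy3 intensity. The Cy3-labelled switching-strand clusters sat on a modified Illumina MiSeq flow-cell, were annealed to 100 nM quencher-labelled ATP aptamer, and were imaged in selection buffer, then after 15 min with 500 uM ATP at 22 °C. Five cycles ran with NaOH stripping and re-annealing between them, and clusters outside 100-1000 RFU were excluded.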
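Also: ATP exposure 15 min at 22 °C before imaging.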

Row | Sequence | switch fluorescence ratio
1 | TTCGGGTAAC | 0.988
2 | GACCTGAATG | 0.94
3 | CTGGTTTGGC | 0.977
4 | ATAGCGCGG | 0.985
5 | TCTCGATCGT | 1.07
6 | CGCTAATCTA | 1.17
7 | CCTTATATGG | 1.02
8 | TGTTCTCGAT | 1.06
9 | TCACTGAGGA | 0.996
10 | GGGCATTTAA | 0.978
11 | CGTTATTTAA | 1.01
12 | GGTTTCTAAC | 0.96
13 | GAAGCCGCGG | 0.923
14 | CGTTATGGAA | 0.942
15 | AGTTTTTTAA | 0.979
16 | TGGGATGTCG | 1.06
17 | ACGTTAGCAG | 1
18 | CCTAAATACA | 1.15
19 | AAGAGGTCCT | 1.08
20 | AAAAAATATC | 0.977
21 | TTTAGCCCGG | 0.985
22 | GGATGATAGA | 1.01
23 | TATAAGTGTA | 0.986

Row | Sequence | switch fluorescence ratio
24 | GTGATGGCTT | 0.98
25 | GTGATACCTA | 1.01
26 | ATCTAGTGAA | 0.984
27 | TCCCCCAAGT | 1.44
28 | CGTGTGCGAC | 0.971
29 | GGACGGATTT | 1.06
30 | GGCTAAGCTA | 0.972
31 | ATTGGTACAT | 0.986
32 | AGAACGCAGA | 1.04
33 | GGACTCAGGA | 0.987
34 | AGGGCTGCAC | 0.991
35 | TTATCTACAT | 1.05
36 | ATTCGACGGC | 1
37 | GGCCCATTCT | 0.935
38 | CATTGTTCCC | 0.961
39 | ACGCAGCTT | 2.15
40 | CGACCTGACT | 2.26
41 | TGGTGAGGA | 1.04
42 | GTGGGAAGGA | 1.01
43 | ACTACATCA | 1.05
44 | ATCGTATTAT | 1.01
45 | TTGCAGACGA | 1.12
46 | CTACTTCTCA | 1.05

Row | Sequence | switch fluorescence ratio
47 | GACCTCTGTA | 1.03
48 | CCATAAGGCT | 1.04
49 | TTAGAAGATG | 0.946
50 | CGGAATTTTG | 1.03
51 | CTATCTCAG | 1.03
52 | TTGGACAGCG | 1.01
53 | ACAGCTCTTA | 1.05
54 | TGAGATTTTA | 0.967
55 | CTACTTAGGA | 1.02
56 | TGAGCACCTT | 1.04
57 | AGCAGCGGTA | 0.993
58 | TTGATCCCCG | 0.983
59 | AATATTTGGG | 1
60 | CGTGTAGAGC | 1.02
61 | TCTCACCAAA | 1.05
62 | TTACGAAGTA | 1.05
63 | GACGTGGGAT | 1.08
64 | CAGGGGGT | 1.03
65 | GCAGGGCCTG | 0.988
66 | CGCAAAGAGC | 1.32
67 | TTTACAATAG | 1.09
68 | AAGGTGCTTA | 1.12
69 | GGGATCTGGA | 1.07

Row | Sequence | switch fluorescence ratio
70 | AGTGACTGT | 0.98
71 | TCTTAATAGC | 1.04
72 | TGTACAAAGG | 1.01
73 | CTCTATTACC | 1
74 | GTCCAAAACA | 1.02
75 | GTAGCCCTGG | 1.05
76 | ACAGCTTCCA | 1.09
77 | ATTTGTTGGG | 1.01
78 | TTGTTTAG | 1.07
79 | TGTTCGAAAT | 1.02
80 | GGGGCCAGGC | 1.04
81 | GCGCTAAGGC | 1.07
82 | ACGGCTAGAG | 1.06
83 | ACATTCGTTG | 0.997
84 | TAAGTCCGAC | 1.04
85 | CCACGGTTCT | 1.02
86 | TCGCCAGGGT | 1.06
87 | GTGGCAGAAC | 1.16
88 | CATTGGGGCC | 1.07
89 | ACGACGCCG | 1.07
90 | TAGTTATGCG | 1.05
91 | TCGCGTCCTG | 0.974
92 | TTACTCCCCC | 1.35

Row | Sequence | switch fluorescence ratio
93 | TGAAAGTACT | 1.13
94 | CCTGTCGGGA | 0.997
95 | CTTATTAAGA | 1.05
96 | CGCGTAGTTC | 1.04
97 | TAGCCCCAGT | 1.2
98 | GTAGCGGCTT | 0.99
99 | TACTAACGA | 1.37
100 | CGACGGTATT | 1.29
101 | CGCGATGCAC | 2.58
102 | TAGGTCGGGG | 0.97
103 | CAGTATTATA | 0.995
104 | CGTACTTGAC | 1.14
105 | ACGTGCGGTG | 1.03
106 | CGGATCCCCA | 1.01
107 | AGGGCTTGTT | 1.03
108 | AAGCTGCAAT | 1.72
109 | ATTCGCAGGG | 1.07
110 | GGACAGTAGA | 1.03
111 | GTCAAAGCGT | 1.03
112 | ACTACCGTAC | 1.68
113 | CCGTTCGCCT | 1.25
114 | AGTTGATTGC | 1.03
115 | AAGTTTCTGT | 0.943

Row | Sequence | switch fluorescence ratio
116 | AGACGCAGGT | 0.993
117 | AGGTGCTTAG | 1.04
118 | TGGATCAGGT | 1.01
119 | CATACGATTA | 1.06
120 | ACTGTGAGGC | 1.01
121 | TACGGAAAT | 1.62
122 | AGAAGCGCTT | 0.941
123 | CATGATTACT | 0.987
124 | ATGCGGAGCA | 1.03
125 | CTGAACTTC | 1.1
126 | ATCAATAGCC | 1.05
127 | GACATATATC | 1.07
128 | GTGGATAGCG | 0.987
129 | ACTGAGGGCT | 1.06
130 | GGATTCGGTC | 1.03
131 | CATCTTAATC | 1.06
132 | ACCAAACGAT | 1.21
133 | TTTATTACTG | 1.04
134 | ACTAGGAGGC | 1.08
135 | CGTATTGACG | 0.973
136 | GCTTCTATGA | 1.01
137 | CGTTCGCCGA | 0.898
138 | TTCGTAAACT | 1.08

Row | Sequence | switch fluorescence ratio
139 | GAGCCATATC | 1.04
140 | CACTCGCTGC | 2.15
141 | CTTTTGAGGT | 0.997
142 | ATTAGATTCA | 1.02
143 | AGAATAGCTG | 1.05
144 | GTTGCGTCCC | 1.01
145 | TGTAATGTGT | 0.997
146 | GTCAGAATAA | 1.01
147 | CAATTTTTCC | 1.08
148 | GTTCCATTAG | 1.03
149 | TAAGAGGACC | 0.974
150 | GTCAAAGTGC | 0.986
151 | CGCTTAAAGG | 1.05
152 | ACGACTAGC | 1.18
153 | GGGCGTAACG | 0.98
154 | TCGGTACCC | 1.03
155 | GAAGAATACG | 1.03
156 | TCGCTAGAGT | 0.967
157 | TCGAGCGTCG | 0.944

Reference: the supplement of paper PMC10126150
